This is one part of the list. At the low end of the ranking, values are background and their order means little. Measured with an extract: partners may take part in the binding.

Among the data in PMC10726135 are binding signal (log2 normalized intensity) values, retold here.

The assay addresses T1, HNF4alpha2 (COS-7 nuclear extract) (UniProt P41235).
T1 sequence: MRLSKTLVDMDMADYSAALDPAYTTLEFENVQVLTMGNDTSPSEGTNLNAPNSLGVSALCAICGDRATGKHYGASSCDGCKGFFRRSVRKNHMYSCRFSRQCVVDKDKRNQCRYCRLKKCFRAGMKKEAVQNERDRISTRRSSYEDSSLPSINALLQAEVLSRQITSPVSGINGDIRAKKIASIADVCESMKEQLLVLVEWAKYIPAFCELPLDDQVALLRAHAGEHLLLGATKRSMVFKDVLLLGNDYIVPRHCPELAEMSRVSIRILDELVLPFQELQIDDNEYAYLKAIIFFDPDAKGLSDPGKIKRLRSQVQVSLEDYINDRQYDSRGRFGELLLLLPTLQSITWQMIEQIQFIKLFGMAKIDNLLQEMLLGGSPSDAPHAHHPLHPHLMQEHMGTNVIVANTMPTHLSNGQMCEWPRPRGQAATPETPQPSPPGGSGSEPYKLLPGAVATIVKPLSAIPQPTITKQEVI
In words: protein-binding microarray. The settings on record: COS-7 nuclear extract on double-stranded Agilent 4x180k PBM; binding buffer, salt, pH and temperature not given; high values mean tight binding; double strand, one strand shown; sequences stand for … in …GCCTAGGGAGATTAGAGTATCGGTCGA
Take GGCGTGGACTTCGCTCCGCCGCTAGGTGGC: the binding signal (log2 normalized intensity) is 2.49.

For the sequence CGATAAGCTGACCCCAAAACCCCCAAAGGT, the binding signal (log2 normalized intensity) was 4.67. Next, TGGACAAACAGGCTGAACATGACTGGCATT: -1.15. On to TCCACTCTCCTATCTTTCCCTCCACTTCCT, for which the binding signal (log2 normalized intensity) came to 1.05. Next, TGAGCCCAGTGGAGTAGGCTTTAGATAAGG: -1.14; AATTCTTGTCCCTTTCAAGGGCTTACAACT: -0.219. Next, ACAAAGTTCCTGAGATAAAAAGAAGCTTGG: -1.21. Next, AGCTCCATCTGAACTCTTCATGGACTCCTC: 2; CTGGGTCTGTCCTTTGTGTTTATGGCAAAT: 2.27; AAAAGAGCATAAGGTTTCCATCAAGCCTTT: -1.04. On to TTTTCAACAATGTTATCTTTTCAAGGATGT, for which the binding signal (log2 normalized intensity) was 1.68. With CCAACGGTCGGAAGGGAGGTGCCATGTCAC, the binding signal (log2 normalized intensity) is -0.713. Next, AGGGTAGGAGCCTCTGATTTGCTGATCCTA: -1.14; AACTCTGAAGATTCACAGGTGGGATGCAAA: -0.782. Next, CCTGCTGGCCTGGGAACTTAGCGATTTGGA: -1.07; GAAGATAAATCAGAAGAAAAAGGTAAGGAG: -1.25; CTCCGCCCCGTTCCCGGCAGCCCGCGCGTG: 3.09. Next, CCAGAATTCTCCCTGCAGTCCTCTGCTTAT: 0.852; CAAATTCCACACCCCCCACTCTTCATATCT: 3.21. Take GTCTGGCATACAGGGTCCAAAGGTGTCAAG: the binding signal (log2 normalized intensity) amounted to 4.29. Next, GAGGAGTTAAAGCACAGTGTCTTTGTTTGG: 1.58; CCAGGAAGCAAGACAATGCACTCATAACTA: -1.18.

In the case of TCGTCCCGTCAATCTGCAGCCGCCGGAGAA, the binding signal (log2 normalized intensity) is -1.

For the sequence CCTGGTATTAATGAGGCAAAGGTCAGGAGT, the binding signal (log2 normalized intensity) was 4.05. Next, CTGGACTATGCCTTGAACTTTAAGGCACCT: 1.07; GGTAGCCACTGACAGGAGGTATGCCAGGAA: -1.06; TTTGACCGCTCATTTGATCCTCACAGTGCC: 0.124.

Consider CATTCATACATTTGCCTGAACTTTAAACTG, for which the binding signal (log2 normalized intensity) was 3.65. Consider AGTTAGCTACACGGGCCTGAAAACTGGAGG, for which the binding signal (log2 normalized intensity) is -1.16. Next, ACTCCTGATAGCTAGAGAGTTCAAGAAGGG: -1.03; AAGAAACATTCCAGACAGGAGGATTCCTGA: -1.11; GGGTCCAGGTGCTGGGATGATTCCCTTATC: 0.73.

Take GAGGCTCTTATCAGCTGCAGGGATTATCAA: the binding signal (log2 normalized intensity) was -1.04. Next, TTTGGGCCAAATATTTATGGCTTGGGTTTA: 0.64. Next, TATCTTACGCAACTGAAATTGCACTCTTTG: 0.872; GTTTCGTAATATTTAGGTGTTTACTTACTG: 1.45. Next, TGAGCTAAGTCCCAAGGGATAGGCAGGAGT: -1.09; TGTTTGTTCTTGCTACCTACTCATTCATAT: 0.973; CACTAGGACATATATGAGGAAGGGTGTGTA: 0.919. Take TCAAAGGTCAGCTCTCCTTTGTCTTCTTGT: the binding signal (log2 normalized intensity) was determined as 2.3. Next, GGTGAGGGATGAGGACTTTGATCAGCAATG: 4. Next, CACCTATGTGGTCAAAACTTTGTTTGAGTT: 1.69. Next, GCTTACAACTCTAAGGGGGAAAGTCCACGT: 3.75; CAGGCCTGTGTCCAAACTTCAGGATTCTTT: -0.806.

Take TGTTATCAAGTGAGAAACCACAGGAGTGCC: the binding signal (log2 normalized intensity) was -1.06. As to GATCCCTGAACTTTGCTCCCACCCTGCAAT, the binding signal (log2 normalized intensity) is 4.6. Next, AGAATCTACAAGGACCAGATTCTTAAAGGG: -1.19; GTCTTATCTACCTGGCTTGTTTGCAAAGCA: 0.899; CTGAAAAATGTCAGCAAAGTGTCAAGTAGA: -0.924. Next, ATCTGCATGGACAGCACTTAGGGTTCAAAG: 1.71. Next, GGCCATTCTGATTTGATAAGATGTGTAAAA: 1.05; GGTTAAAGGTTATTTGCTCACCAGTGACCA: 2.07. Turning to TTCCCTCCCTGGTATGTACTTTCTTTTGGC, the binding signal (log2 normalized intensity) was 2.04. With GAAAAAGTACACACCTGCAACCTATTTCTT, the binding signal (log2 normalized intensity) was -1.05. Next, GCCTTGTGGGAGCTGTAGTACGCTCCCTGT: 0.248; AGTGTCCCACTTCAGGCAGGAATGCTGAAC: -0.0191; CGCCAGGTGGCCGAGCAGGACGCTACCCGC: -1.18.

With CCCTCACTTACATCCTCAGGTAAAGATCAA, the binding signal (log2 normalized intensity) came out at 1.26.

With GACCTCTCTCTCCCCAGACAGCCACTGTTT, the binding signal (log2 normalized intensity) was found to be 2.51. Next, AGAGGTCAGAAGTCCAAAATCAGTCTCAGT: 3.2; TCTAAAGTGACTTAGCAGGATTCTTGCTAC: -0.752; TTCTTCCTATGGGATCAAAGTGCGACAGGG: 3.09. Next, CAAAGAGAAATGGTGTGGACAGCAGACAAC: -1.11; GAAGGGAGGTGCCATGTCACCGCACAGGGG: -1.24; CAGAAGGAGGGCGGGGAGTCTCCTGGGTAA: -0.989. Next, GCGGGGCTCAAAGGCGGCCCGGGTGGGGGT: -1.08; TTCACCAAGAGGGAAAAGATGGTCTCTCAC: -1.13. TGACCTGCAAGGTTCTCTCTTCTTCCCCTC: the binding signal (log2 normalized intensity) was 2.47.

For GAAATCATTCCAGAAAGACAGCTGCATTTG, the binding signal (log2 normalized intensity) is -1.18. Next, CAGCAATAAATACCAAAGCCATGGCTCCAA: -1.09. Consider CCCCCCACCCCACACACACACAGCATTCCA, for which the binding signal (log2 normalized intensity) was found to be 5.05. Next, AGCCAGAGGCAGCAAGGTCAAAGTGCGTCC: 5.61; TCTGATACACTCGCCGTGTGACTGAGGGCT: -1.22.
